# Data published in the supplement of paper PMC8728848.
# Some of the results follow.
# B1: Cohesin-marm-DC-ASGPR-CRD (protein)
# chain: LDITSHHHHHHDDLDAVRIKVDTVNAKPGDTVRIPVRFSGIPSKGIANCDFVYSYDPNVLEIIEIEPGDIIVDPNPDKSFDTAVYPDRKIIVFLFAEDSGTGAYAITKDGVFATIVAKVKEGAPNGLSVIKFVEVGGFANNDLVEQKTQFFDGGVNVGDTTEPATPTTPVTTPTTTDDLDAASCPINWVEHQGSCYWFSRSGKTWPEAERYCQLENTHLVVINSREEQNFVQAHLGSAYTWMGLSDPEGVWKWVDGTDYSSGFQNWKPGQPDDWQGHGLGGGEDCAHFHPDGRWNDDVCQRSYHWVCEAGLTQASQDSH
# Key:
# Assay in all cases: glycan array binding signal (z-score within array); higher = stronger binding
# Conditions in all cases: glycan notation: IUPAC condensed, linker removed
# Neu5Ac(a2-3)GalNAc = target: Neu5Ac(a2-3)GalNAc
# In short: (§1)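 From the Consortium for Functional Glycomics database, 3228 arrays were curated, keeping only those whose protein sequence was available. Binding is given as a within-array Z-score averaged across arrays sharing a protein sequence and across linkers. Negative Z-scores can be read as non-binding.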
# [1] = target: Neu5Ac(a2-3)GalNAc(b1-4)GlcNAc
# In short: as §1
# [2] = target: Neu5Ac(a2-3)[GalNAc(b1-4)]Gal(b1-4)Glc
# In short: as §1
# [3] = target: Neu5Ac(a2-3)[GalNAc(b1-4)]Gal(b1-4)GlcNAc
# In short: as §1
# [4] = target: Neu5Ac(a2-3)[GalNAc(b1-4)]Gal(b1-4)GlcNAc(b1-3)GalNAc
# In short: as §1
# [5] = target: Neu5Ac(a2-3)[Neu5Ac(a2-6)]GalNAc
# In short: as §1
# Neu5Ac(a2-6)Gal = target: Neu5Ac(a2-6)Gal
# In short: as §1
# [6] = target: Neu5Ac(a2-6)Gal(b1-3)GlcNAc(b1-3)[Gal(b1-4)GlcNAc(b1-6)]Gal(b1-4)Glc
# In short: as §1
# Neu5Ac(a2-6)Gal(b1-4)Glc = target: Neu5Ac(a2-6)Gal(b1-4)Glc
# In short: as §1
# [7] = target: Neu5Ac(a2-6)Gal(b1-4)GlcNAc
# In short: as §1
# [8] = target: Neu5Ac(a2-6)Gal(b1-4)GlcNAc(b1-2)Man
# In short: as §1
# [9] = target: Neu5Ac(a2-6)Gal(b1-4)GlcNAc(b1-2)Man(a1-3)Man(b1-4)GlcNAc(b1-4)GlcNAc
# In short: as §1
# [10] = target: Neu5Ac(a2-6)Gal(b1-4)GlcNAc(b1-2)Man(a1-3)[Gal(b1-4)GlcNAc(b1-2)Man(a1-6)]Man(b1-4)GlcNAc(b1-4)GlcNAc
# In short: as §1
# [11] = target: Neu5Ac(a2-6)Gal(b1-4)GlcNAc(b1-2)Man(a1-3)[GlcNAc(b1-2)Man(a1-6)]Man(b1-4)GlcNAc(b1-4)GlcNAc
# In short: as §1
# [12] = target: Neu5Ac(a2-6)Gal(b1-4)GlcNAc(b1-2)Man(a1-3)[GlcNAc(b1-4)][Neu5Ac(a2-6)Gal(b1-4)GlcNAc(b1-2)Man(a1-6)]Man(b1-4)GlcNAc(b1-4)GlcNAc
# In short: as §1
# [13] = target: Neu5Ac(a2-6)Gal(b1-4)GlcNAc(b1-2)Man(a1-3)[Man(a1-6)]Man(b1-4)GlcNAc(b1-4)GlcNAc
# In short: as §1
# [14] = target: Neu5Ac(a2-6)Gal(b1-4)GlcNAc(b1-2)Man(a1-3)[Neu5Ac(a2-3)Gal(b1-4)GlcNAc(b1-2)Man(a1-6)]Man(b1-4)GlcNAc(b1-4)GlcNAc
# In short: as §1
# [15] = target: Neu5Ac(a2-6)Gal(b1-4)GlcNAc(b1-2)Man(a1-3)[Neu5Ac(a2-6)Gal(b1-4)GlcNAc(b1-2)Man(a1-6)]Man(b1-4)GlcNAc(b1-4)GlcNAc
# In short: as §1
# [16] = target: Neu5Ac(a2-6)Gal(b1-4)GlcNAc(b1-2)Man(a1-3)[Neu5Ac(a2-6)Gal(b1-4)GlcNAc(b1-2)Man(a1-6)]Man(b1-4)GlcNAc(b1-4)[Fuc(a1-6)]GlcNAc
# In short: as §1
# [17] = target: Neu5Ac(a2-6)Gal(b1-4)GlcNAc(b1-2)Man(a1-6)Man(b1-4)GlcNAc(b1-4)GlcNAc
# In short: as §1
# [18] = target: Neu5Ac(a2-6)Gal(b1-4)GlcNAc(b1-2)Man(a1-6)[Gal(b1-4)GlcNAc(b1-2)Man(a1-3)]Man(b1-4)GlcNAc(b1-4)GlcNAc
# In short: as §1
# [19] = target: Neu5Ac(a2-6)Gal(b1-4)GlcNAc(b1-2)Man(a1-6)[GlcNAc(b1-2)Man(a1-3)]Man(b1-4)GlcNAc(b1-4)GlcNAc
# In short: as §1
# [20] = target: Neu5Ac(a2-6)Gal(b1-4)GlcNAc(b1-2)Man(a1-6)[Man(a1-3)]Man(b1-4)GlcNAc(b1-4)GlcNAc
# In short: as §1
# [21] = target: Neu5Ac(a2-6)Gal(b1-4)GlcNAc(b1-2)[Neu5Ac(a2-6)Gal(b1-4)GlcNAc(b1-4)]Man(a1-3)[GlcNAc(b1-4)][Neu5Ac(a2-6)Gal(b1-4)GlcNAc(b1-2)[Neu5Ac(a2-6)Gal(b1-4)GlcNAc(b1-6)]Man(a1-6)]Man(b1-4)GlcNAc(b1-4)GlcNAc
# In short: as §1
# [22] = target: Neu5Ac(a2-6)Gal(b1-4)GlcNAc(b1-2)[Neu5Ac(a2-6)Gal(b1-4)GlcNAc(b1-4)]Man(a1-3)[GlcNAc(b1-4)][Neu5Ac(a2-6)Gal(b1-4)GlcNAc(b1-4)Man(a1-6)]Man(b1-4)GlcNAc(b1-4)GlcNAc
# In short: as §1
# [23] = target: Neu5Ac(a2-6)Gal(b1-4)GlcNAc(b1-2)[Neu5Ac(a2-6)Gal(b1-4)GlcNAc(b1-6)]Man(a1-6)[Neu5Ac(a2-6)Gal(b1-4)GlcNAc(b1-2)Man(a1-3)][GlcNAc(b1-4)]Man(b1-4)GlcNAc(b1-4)GlcNAc
# In short: as §1
# [24] = target: Neu5Ac(a2-6)Gal(b1-4)GlcNAc(b1-3)Gal(b1-3)GlcNAc
# In short: as §1
# [25] = target: Neu5Ac(a2-6)Gal(b1-4)GlcNAc(b1-3)Gal(b1-4)GlcNAc
# In short: as §1
# [26] = target: Neu5Ac(a2-6)Gal(b1-4)GlcNAc(b1-3)Gal(b1-4)GlcNAc(b1-2)Man(a1-3)[Neu5Ac(a2-6)Gal(b1-4)GlcNAc(b1-3)Gal(b1-4)GlcNAc(b1-2)Man(a1-6)]GalNAc
# In short: as §1
# [27] = target: Neu5Ac(a2-6)Gal(b1-4)GlcNAc(b1-3)Gal(b1-4)GlcNAc(b1-3)Gal(b1-4)GlcNAc
# In short: as §1
# [28] = target: Neu5Ac(a2-6)Gal(b1-4)GlcNAc(b1-3)Gal(b1-4)GlcNAc(b1-3)Gal(b1-4)GlcNAc(b1-2)Man(a1-3)[Neu5Ac(a2-6)Gal(b1-4)GlcNAc(b1-3)Gal(b1-4)GlcNAc(b1-3)Gal(b1-4)GlcNAc(b1-2)Man(a1-6)]GalNAc
# In short: as §1
# [29] = target: Neu5Ac(a2-6)Gal(b1-4)GlcNAc(b1-3)Gal(b1-4)GlcNAc(b1-3)GalNAc
# In short: as §1
# [30] = target: Neu5Ac(a2-6)Gal(b1-4)GlcNAc(b1-3)Gal(b1-4)GlcNAc(b1-3)[Neu5Ac(a2-6)Gal(b1-4)GlcNAc(b1-3)Gal(b1-4)GlcNAc(b1-6)]GalNAc
# In short: as §1
# [31] = target: Neu5Ac(a2-6)Gal(b1-4)GlcNAc(b1-3)Gal(b1-4)GlcNAc(b1-6)[Gal(b1-3)]GalNAc
# In short: as §1
# [32] = target: Neu5Ac(a2-6)Gal(b1-4)GlcNAc(b1-3)Gal(b1-4)[Fuc(a1-3)]GlcNAc(b1-3)Gal(b1-4)[Fuc(a1-3)]GlcNAc
# In short: as §1
# [33] = target: Neu5Ac(a2-6)Gal(b1-4)GlcNAc(b1-3)GalNAc
# In short: as §1
# [34] = target: Neu5Ac(a2-6)Gal(b1-4)GlcNAc(b1-3)[Neu5Ac(a2-6)Gal(b1-4)GlcNAc(b1-6)]GalNAc
# In short: as §1
binder,measurement,setting,value
B1,glycan array binding signal (z-score),Neu5Ac(a2-3)GalNAc,-0.435
same,glycan array binding signal (z-score),[1],-0.447
same,glycan array binding signal (z-score),[2],2.68
same,glycan array binding signal (z-score),[3],2.36
same,glycan array binding signal (z-score),[4],2.56
same,glycan array binding signal (z-score),[5],-0.395
same,glycan array binding signal (z-score),Neu5Ac(a2-6)Gal,-0.375
same,glycan array binding signal (z-score),[6],-0.452
same,glycan array binding signal (z-score),Neu5Ac(a2-6)Gal(b1-4)Glc,-0.421
same,glycan array binding signal (z-score),[7],-0.453
same,glycan array binding signal (z-score),[8],-0.448
same,glycan array binding signal (z-score),[9],-0.442
same,glycan array binding signal (z-score),[10],-0.392
same,glycan array binding signal (z-score),[11],-0.448
same,glycan array binding signal (z-score),[12],-0.445
same,glycan array binding signal (z-score),[13],-0.446
same,glycan array binding signal (z-score),[14],-0.43
same,glycan array binding signal (z-score),[15],-0.424
same,glycan array binding signal (z-score),[16],-0.451
same,glycan array binding signal (z-score),[17],-0.446
same,glycan array binding signal (z-score),[18],-0.425
same,glycan array binding signal (z-score),[19],-0.456
same,glycan array binding signal (z-score),[20],-0.447
same,glycan array binding signal (z-score),[21],-0.426
same,glycan array binding signal (z-score),[22],-0.368
same,glycan array binding signal (z-score),[23],-0.442
same,glycan array binding signal (z-score),[24],-0.41
same,glycan array binding signal (z-score),[25],-0.46
same,glycan array binding signal (z-score),[26],-0.038
same,glycan array binding signal (z-score),[27],-0.384
same,glycan array binding signal (z-score),[28],0.072
same,glycan array binding signal (z-score),[29],-0.378
same,glycan array binding signal (z-score),[30],-0.299
same,glycan array binding signal (z-score),[31],-0.4
same,glycan array binding signal (z-score),[32],-0.346
same,glycan array binding signal (z-score),[33],2.19
same,glycan array binding signal (z-score),[34],-0.233
